The other results are listed elsewhere or left out.
system: T1, Caupolican (Caup) homeodomain DNA-binding domain; experiment: PBM E-score (8-mer, recovered from the published 9-mer minima) (E-score (dimensionless, -0.5 to 0.5)); Drosophila protein; higher = stronger relative binding preference, active = 0.31 or more
T1 sequence: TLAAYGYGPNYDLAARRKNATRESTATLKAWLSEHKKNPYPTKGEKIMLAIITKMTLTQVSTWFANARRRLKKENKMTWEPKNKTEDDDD
Method in brief: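 Caup's homeodomain DNA-binding domain (residues 214-303) was made by in vitro transcription and translation and applied at 100 nM to custom-designed protein binding microarrays. Each value is an enrichment score that gives relative binding preference for a short DNA word, with higher meaning stronger. The 8-mer values were recovered from published 9-mer scores, each of which was the minimum of its two constituent 8-mer scores. A cutoff of 0.31 marks candidate sites.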

| Sequence | PBM E-score |
| --- | --- |
| AGCACTTC | inactive: -0.00216 |
| GAGCAATA | inactive: 0.0284 |
| CATTAGTA | inactive: 0.153 |
| ACCCATCC | inactive: -0.0713 |
| TGGGTGAA | inactive: 0.0348 |
| GACCAGGA | inactive: -0.00862 |
| GCGGCTAA | inactive: -0.139 |
| ACAGGAAT | inactive: 0.222 |
| AGGATAAG | inactive: -0.0656 |
| CACCTGAG | inactive: -0.114 |
| CGAATATC | inactive: 0.0265 |
| TAGCATGA | inactive: 0.231 |
| TATTCTAA | inactive: 0.116 |
| TTCATCAA | inactive: 0.0566 |
| ATTCAATA | ≥ 0.174 |
| CGATCGAC | inactive: 0.00154 |
| GTCTAAAC | inactive: 0.0391 |
| CAATTCAG | inactive: -0.0441 |
| CTACTATC | inactive: 0.134 |
| ATCAGTAC | inactive: 0.201 |
| CAGACCCG | inactive: -0.173 |
| CCCCATGC | inactive: -0.233 |
| AAGAACGT | inactive: 0.0414 |
| TTCGTCAA | inactive: 0.074 |
| CAGCGTGC | inactive: -0.15 |

| Sequence | PBM E-score |
| --- | --- |
| TGCCTCCA | ≥ -0.121 |
| ATTTTCAC | inactive: 0.0421 |
| CCAGTCCC | inactive: -0.12 |
| ATCAACAT | active: 0.371 |
| AGGTAAGA | inactive: 0.00531 |
| CTAGCGAG | inactive: -0.138 |
| AATTATAG | inactive: 0.105 |
| GCGTATGA | inactive: 0.0288 |
| AACCAATG | inactive: 0.0915 |
| AAGCCAAC | inactive: -0.0127 |
| CCTACCGA | inactive: -0.0361 |
| AAAGGGTG | inactive: -0.0752 |
| ACGGATTG | inactive: -0.00867 |
| GATGCTGC | inactive: -0.0365 |
| ACATGTGC | active: 0.351 |
| CGGGTCGA | inactive: -0.093 |
| GATAAACC | inactive: -0.00443 |
| GGGGTTGA | inactive: -0.0779 |
| CTAGAGAC | inactive: -0.12 |
| CTCGGAAG | inactive: -0.102 |
| AACTACCG | inactive: -0.0413 |
| AACATCGT | inactive: 0.269 |
| CGTTGGCA | inactive: -0.0585 |
| ACTGTCAG | inactive: 0.119 |
| CGCAATCC | inactive: -0.0118 |

| Sequence | PBM E-score |
| --- | --- |
| AATTACTC | inactive: 0.117 |
| GTTAGGCA | inactive: -0.02 |
| GAGGTCTA | inactive: -0.0762 |
| ACCGTGTG | inactive: 0.115 |
| ACTCCTTC | inactive: -0.0484 |
| ACCCCTCT | inactive: -0.0958 |
| AGCTAGAG | inactive: -0.119 |
| CGGCTTTC | inactive: -0.191 |
| GAGGTATC | inactive: -0.0102 |
| TCGAACGA | inactive: 0.0918 |
| ATACTGAC | inactive: 0.0949 |
| CTGAAAAC | inactive: -0.0188 |
| CATAAATA | inactive: 0.211 |
| CGGTGTAC | inactive: 0.257 |
| CCAAATAG | inactive: -0.00279 |
| CTTGCCTC | inactive: -0.0653 |
| ATGCCCTA | inactive: -0.0824 |
| CCTCTTCG | inactive: -0.0532 |
| ACGTGGAG | inactive: -0.0857 |
| CCGGCTAC | inactive: -0.175 |
| AGACTGTC | inactive: 0.0269 |
| CCCACGAG | inactive: -0.148 |
| CCACTAGA | inactive: -0.164 |
| CGCCCCAC | inactive: -0.243 |
| AACGAGCC | inactive: 0.0103 |

| Sequence | PBM E-score |
| --- | --- |
| AGGACTCC | inactive: -0.156 |
| AGCTTGCC | inactive: -0.124 |
| GCGATGGA | inactive: -0.0635 |
| AGTATATA | inactive: 0.159 |
| ATCCCTAG | inactive: -0.0272 |
| CACTGAAC | inactive: 0.08 |
| ACGCGGTC | inactive: -0.118 |
| ACCACCTA | inactive: 0.0794 |
| AAAGGTAG | inactive: -0.0595 |
| CTGCCCCC | inactive: -0.251 |
| CTGACGCC | inactive: -0.159 |
| ACGCAACC | inactive: -0.0259 |
| ACTCATAA | inactive: 0.077 |
| AGCTCATG | inactive: 0.0148 |
| CTCTAAAG | inactive: -0.0918 |
| CGCGGCTA | inactive: -0.184 |
| CGGAGTCC | inactive: -0.0906 |
| GCATTGCA | inactive: -0.0386 |
| AAGGGCAC | inactive: -0.142 |
| AGAGCACG | inactive: -0.0138 |
| CCATCTAA | inactive: -0.065 |
| GGAATCAC | inactive: 0.0534 |
| GCACGAAC | inactive: 0.0338 |
| CGCTAGCA | inactive: 0.0145 |
| AATCACGT | inactive: 0.134 |

| Sequence | PBM E-score |
| --- | --- |
| AACAACTG | inactive: 0.208 |
| GATAAGGA | inactive: 0.0879 |
| GGAAATGA | inactive: 0.0251 |
| AACACTAA | inactive: 0.166 |
| CAGATCGA | inactive: 0.0528 |
| ATGTCGGG | inactive: 0.189 |
| TGGCTGAA | inactive: -0.108 |
| AGGCCGAG | inactive: -0.146 |
| AGGTATGG | inactive: -0.108 |
| CATAAACC | inactive: 0.0813 |
| CCTACTCG | inactive: -0.089 |
| AGGGGAAC | inactive: -0.181 |
| ACTTTAGC | inactive: -0.101 |
| AAGATGCC | inactive: -0.104 |
| CTCCAAAG | inactive: -0.048 |
| GGTTTTCA | inactive: 0.00673 |
| GCTTTCCA | inactive: -0.113 |
| ATGTTGGA | inactive: 0.198 |
| AAAAAACT | inactive: 0.0351 |
| ATGTCTAC | inactive: 0.19 |
| GATACATC | inactive: 0.297 |
| GCGTGCAC | inactive: -0.0425 |
| CGTCCTAA | inactive: -0.0546 |
| TACTCTGA | inactive: 0.0244 |
| ATAATGCC | inactive: 0.0429 |

| Sequence | PBM E-score |
| --- | --- |
| CATTTCCC | inactive: 0.0455 |
| TTCTAAAA | inactive: 0.0346 |
| GTTAAAAC | inactive: 0.0744 |
| GACCTAGA | inactive: -0.0889 |
| CGCGTTAC | inactive: 0.0398 |
| CATAACGG | inactive: 0.0573 |
| ACTGCGCC | inactive: -0.182 |
| ATGGAACC | inactive: -0.00509 |
| CCTGTCAG | inactive: 0.115 |
| AAGTAGCA | ≥ 0.108 |
| AGGATTTC | inactive: -0.0357 |
| ACGGGTCT | inactive: -0.105 |
| GAAGGGCA | inactive: -0.168 |
| CAGTCACC | inactive: -0.061 |
| CGAATAGC | inactive: 0.0209 |
| AAAATACA | inactive: 0.263 |
| GTCCGTTA | inactive: 0.118 |
| AGACAGGG | inactive: -0.0685 |
| ACAACTTA | inactive: 0.268 |
| ATAACAAA | inactive: 0.205 |
| ACCTTGTG | inactive: 0.0927 |
| GACTTTAA | inactive: 0.0173 |
| CACTGCCG | inactive: -0.173 |
| ATCTCTAC | inactive: 0.13 |
| AGCCTGTG | inactive: -0.0477 |

| Sequence | PBM E-score |
| --- | --- |
| ACATCGGA | ≥ 0.166 |
| CCCCCACG | inactive: -0.312 |
| GTCATGCA | inactive: 0.111 |
| CAGTGCTA | inactive: -0.0583 |
| CTTCCTGC | inactive: -0.209 |
| AGTTATTA | inactive: 0.161 |
| CTATAACC | inactive: 0.126 |
| CCATGCGG | inactive: -0.187 |
| AAATTAAG | inactive: 0.0652 |
| GCGAAGGA | inactive: -0.0775 |
| AGGACTTG | inactive: 0.0496 |
| AAGTTCCC | inactive: -0.202 |
| GCCCCAGC | inactive: -0.257 |
| GTATAGGA | inactive: 0.0342 |
| CACCTTCC | inactive: -0.0194 |
| TGCTGCCA | inactive: -0.0702 |
| CCCATCAA | inactive: -0.0524 |
| GAGAACAA | inactive: 0.132 |
| ACTGACGC | inactive: -0.129 |
| AAAGTCTA | inactive: 0.0286 |
| ATTCCACA | inactive: 0.121 |
| AAACACCA | inactive: 0.179 |
| GTTCAACA | inactive: 0.198 |
| ACGTAGAA | inactive: 0.0144 |
| ATCATCTC | inactive: 0.0698 |

| Sequence | PBM E-score |
| --- | --- |
| ATCGCTGG | inactive: -0.114 |
| CTAGGTCA | inactive: 0.042 |
| AGTTTCCG | inactive: -0.135 |
| CAGTCTAG | inactive: -0.0348 |
| ATTGGGCA | inactive: -0.00711 |
| ACGGCCCA | inactive: -0.237 |
| GGTTCCAC | inactive: -0.111 |
| CGCCCGGA | inactive: -0.206 |
| AATCGGCG | inactive: -0.11 |
| TAAGGTCA | inactive: -0.0368 |
| CCATAAGG | inactive: -0.2 |
| ACGTCGCT | ≥ -0.0424 |
| CACTGCAA | inactive: 0.0155 |
| ACAAACGT | inactive: 0.116 |
| ACAAAGGT | inactive: 0.0951 |
| ACCCCTAA | inactive: -0.166 |
| CCGGTTCG | inactive: -0.0867 |
| AGCTGAGG | inactive: -0.169 |
| CGAGGACC | inactive: -0.114 |
| CGAGCGCC | inactive: -0.248 |
| ACACACAA | inactive: 0.299 |
| CCTGAACG | inactive: -0.0963 |
| CTAACGAG | inactive: 0.0026 |
| GATGCAGA | inactive: -0.0465 |
| AGGCCCCA | inactive: -0.292 |

| Sequence | PBM E-score |
| --- | --- |
| CCAACCGA | inactive: -0.122 |
| ATAGTGCA | inactive: 0.0829 |
| ACTGCTAA | inactive: -0.0328 |
| CACTAGAC | inactive: -0.0475 |
| AGCTCACA | inactive: 0.0668 |
| CCATCCAG | inactive: -0.0848 |
| CTCGCGGA | inactive: -0.204 |
| AAATAGCA | inactive: 0.112 |
| GACATTGA | inactive: 0.191 |
| ATTTCCAA | inactive: 0.0532 |
| AGCTTTAT | inactive: 0.03 |
| GGATCCTA | inactive: 0.0286 |
| AACTTAGA | ≥ 0.127 |
| AGATGGGG | inactive: -0.175 |
| AGCCATGC | inactive: -0.0552 |
| CGTCTGGA | inactive: -0.11 |
| ACGAGCGT | inactive: -0.0216 |
| CTAGAGAA | inactive: -0.0678 |
| CTTAGAGA | inactive: -0.0641 |
| CGACTCAC | inactive: -0.0855 |
| CATATCCC | inactive: 0.0582 |
| GGAAGCAC | inactive: -0.0375 |

— the supplement of paper PMC3724861
